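1) Cells in 96-well plates. 2) Compound, 48 h, 5 concentrations. 3) Linear interpolation between surrounding doses. 4) Unreached endpoint = highest concentration. Abbreviation: GI50, concentration required for 50% inhibition of growth. The concentration for full growth arrest is given as TGI.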
Tested on: NCI-H322M lung
Assay: NCI anticancer screen, dose series, 48 h

CC(=O)c1ccc(Nc2nc(SCCC(C)C)nc(-c3ccc(F)cc3)c2C#N)cc1
GI50: 7.18 µM
TGI: 56.4 µM
